# Measured values published in paper PMC4336329 (PLoS ONE, 2015).
# The campaign covered roughly 310,000 compounds. About 2,200 (0.71%) showed an effect of 50% or more. The effect is printed as a negative number. The list shows a part of the results.
# Biological target: human ether-à-go-go-related gene (hERG) potassium channel (human, UniProt Q12809)
# Assay: primary screen, population patch clamp on CHO cells stably expressing hERG
# Chain of human ether-à-go-go-related gene (hERG) potassium channel (Q12809 whole entry, looked up): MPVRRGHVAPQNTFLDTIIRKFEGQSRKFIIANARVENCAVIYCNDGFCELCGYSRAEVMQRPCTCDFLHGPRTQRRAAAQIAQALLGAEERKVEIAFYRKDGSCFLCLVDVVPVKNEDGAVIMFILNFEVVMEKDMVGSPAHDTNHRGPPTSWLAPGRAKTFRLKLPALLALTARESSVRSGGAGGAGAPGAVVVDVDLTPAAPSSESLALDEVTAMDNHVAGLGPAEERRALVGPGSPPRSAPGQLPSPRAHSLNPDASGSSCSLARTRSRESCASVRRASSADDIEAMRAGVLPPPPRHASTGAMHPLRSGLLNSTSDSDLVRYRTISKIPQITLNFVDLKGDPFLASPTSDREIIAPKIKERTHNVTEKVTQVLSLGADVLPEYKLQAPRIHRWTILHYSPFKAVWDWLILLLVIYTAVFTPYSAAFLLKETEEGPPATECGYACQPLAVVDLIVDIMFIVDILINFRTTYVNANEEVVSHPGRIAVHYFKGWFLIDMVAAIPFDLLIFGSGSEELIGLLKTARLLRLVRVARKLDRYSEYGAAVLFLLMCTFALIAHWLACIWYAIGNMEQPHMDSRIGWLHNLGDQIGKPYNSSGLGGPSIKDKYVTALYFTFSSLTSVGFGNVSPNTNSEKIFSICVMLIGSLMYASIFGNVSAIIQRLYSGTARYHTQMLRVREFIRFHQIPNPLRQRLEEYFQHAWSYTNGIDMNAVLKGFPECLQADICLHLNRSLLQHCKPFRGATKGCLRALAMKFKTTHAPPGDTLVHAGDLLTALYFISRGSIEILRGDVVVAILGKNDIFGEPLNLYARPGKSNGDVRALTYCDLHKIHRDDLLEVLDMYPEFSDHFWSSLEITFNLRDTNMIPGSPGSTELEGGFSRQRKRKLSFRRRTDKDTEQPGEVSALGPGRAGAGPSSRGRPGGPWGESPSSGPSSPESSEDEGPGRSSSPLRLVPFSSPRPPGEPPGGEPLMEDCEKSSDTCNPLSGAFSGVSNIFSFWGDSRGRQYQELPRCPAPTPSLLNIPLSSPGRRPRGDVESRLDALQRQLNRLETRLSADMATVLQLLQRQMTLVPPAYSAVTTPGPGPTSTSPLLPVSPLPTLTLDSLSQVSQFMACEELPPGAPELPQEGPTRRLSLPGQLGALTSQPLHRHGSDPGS
row,Structure (SMILES),"hERG current change (%, negative = inhibition) at 1uM"
1,CCC(Sc1nc(-c2ccccc2)c(-c2ccccc2)[nH]1)C(=O)O (stereo not drawn),52.5%
2,CC1CCCC(NC(=O)Cn2cc(C(F)(F)F)cc(Cl)c2=O)C1C (stereo not drawn),9.61%
3,c1ccc(Oc2c3ccccc3nc3ccccc23)cc1,16.4%
4,Cc1cc(C)c(C#N)c(Oc2ccc(F)cc2)n1,-2.01%
5,Cc1ccc(NC(=O)c2ccc3snnc3c2)cc1C,0.389%
6,O=C(CCS(=O)(=O)c1ccc(Cl)cc1)Nc1nnc(-c2cccs2)o1,5.33%
7,COc1cccc(CC2(CO)CCN(Cc3cnc(N4CCOCC4)s3)CC2)c1,-6.59%
8,CCN(c1ccccc1)S(=O)(=O)c1ccc(OC)c(N=N/C(C(=O)Nc2ccccc2)=C(/C)O)c1,1.23%
9,Cc1cccc([C@@H]2[C@@H]3C(=O)N(Cc4ccccc4)C(=O)[C@@H]3[C@]3(Cc4ccc(Cl)cc4)C(=O)N(c4ccccc4)C(=O)N23)c1,-4.04%
10,CC(=O)Nc1ccc(NS(=O)(=O)c2ccccc2)cc1,13.5%
11,O=C(CSc1nnc(NCc2ccccc2)s1)c1ccco1,-12.9%
12,CCOC(=O)C1CCCN(C(=O)c2cc3nc(-c4cccc(OC)c4)cc(C(F)(F)F)n3n2)C1 (stereo not drawn),-7.07%
13,Cc1cccc(-c2nnc(SCC(=O)c3ccc(O)cc3O)n2C)c1,10.4%
14,O=C(Nc1ncccn1)C1CCCCC1,1.38%
15,COC(=O)C1=C(c2ccccc2OCc2ccccc2)C[C@@H]2CC[C@H]1N2C(=O)NCc1cccc(C(F)(F)F)c1,11.7%
16,Cc1ccc(NC(=O)CN(C)C(=O)CNC(=O)c2ccc3c(c2)OCO3)cc1,11.7%
17,Clc1ccc(SCCOCCN2CCCCCC2)cc1.O=C(O)C(=O)O,-20.6%
18,COc1ccc(C(=O)NCc2ccccc2)cc1Br,15.3%
19,OCc1nc2c(ccc3ccccc32)[nH]1,4.76%
20,CCc1nnc(NC(=O)CSc2nnc(COc3ccc(C#N)cc3)n2-c2ccccc2)s1,5.24%
21,CCCCN(C(=O)CSc1nnnn1C)C1CCS(=O)(=O)C1 (stereo not drawn),-5.57%
22,S=C1NCN(Cc2cccnc2)CN1c1cccc2ccccc12,10.5%

row,Structure (SMILES),"hERG current change (%, negative = inhibition) at 1uM"
1,CC(CN1CCCC1)OC(=O)Cc1ccc(Cl)cc1.Cl (stereo not drawn),14.7%
2,Br.CN(C)C1=NCC(CSC(=N)N)S1 (stereo not drawn),10.2%
3,O=C(N/N=C/c1ccc[nH]1)c1ccccc1OCc1ccc(F)cc1,6.82%
4,Cc1ccc(S(=O)(=O)/N=C2\C(=O)c3ccccc3C([O-])=C2n2cc[n+](CCC(C)C)c2)cc1,4.3%
5,COc1cccc(CNc2ccc(S(N)(=O)=O)cc2)c1OC,2.06%
6,Cc1ccc(S(=O)(=O)C2(C(=O)Nc3ccc(Br)cc3)CC2)cc1,-1.46%
7,COc1ccc(Br)cc1/C=N/NC(=O)c1ccc(COc2ccc3c(c2)CCC3)o1,19.2%
8,Cc1ccc(C)c(NC(=S)NC(=O)c2cncc(Br)c2)c1,9.09%
9,COc1cccc(NC(=O)C2CC(=O)n3cnnc3S2)c1 (stereo not drawn),10.4%
10,N#CC1=C(N)OC2=C(C(=O)CC(c3ccccc3)C2)C1c1ccoc1 (stereo not drawn),5.48%
11,O=C(NNC(=O)c1cccnc1SCc1cccc([N+](=O)[O-])c1)c1ccc(F)cc1,0.193%
12,CCOc1ccc(CCNC(=O)COC(=O)COc2ccc(Br)cc2)cc1OCC,3.21%
13,O=C(NCc1ccccn1)C1CCN(S(=O)(=O)c2ccccc2)CC1,17%
14,O=C(CN(c1ccccc1)S(=O)(=O)c1ccccc1)NCCSc1ccccn1,18.8%
15,Cc1ccc(/C=C/C(=O)OCC(=O)N(CC(C)C)c2c(N)n(Cc3ccccc3)c(=O)[nH]c2=O)o1,15.4%
16,COc1ccc(/C=N/Nc2ncc(C(F)(F)F)cc2Cl)c(OC)c1OC,7.6%
17,CC1(C)CC(=O)C=C(CN2C(=O)c3ccccc3C2=O)C1=O,15.5%
18,Cn1cc(CN2CCCC(CO)C2)c(-c2ccc(Oc3ccccc3)cc2)n1 (stereo not drawn),0.915%
19,CCC(C(=O)N1CCOCC1)n1nc(C)n2c(cc3cc(C)ccc32)c1=O (stereo not drawn),6.73%
20,CC(C(=O)OCC(=O)Nc1ncc(Cl)cc1Cl)N1C(=O)c2ccccc2C1=O (stereo not drawn),3.54%
21,CC1CCN(S(=O)(=O)c2ccc3c(c2)oc(=O)n3C)CC1,20.4%
22,O=C(NC(=S)Nc1ccc(N2CCOCC2)cc1)c1ccco1,14.5%

row,Structure (SMILES),"hERG current change (%, negative = inhibition) at 1uM"
1,Cc1cc(-n2cccn2)ccc1CN1CCN(CC(C)C)C(CCO)C1 (stereo not drawn),0.354%
2,CN1CCN(Cc2coc3c(Cl)cc(Cl)cc3c2=O)CC1.O=C(O)C(=O)O,13.6%
3,CCN(CC)CCCNc1oc(-c2ccc(OC)c(OC)c2)nc1C#N,-17.5%
4,CCN(CC)S(=O)(=O)c1ccc(C(=O)Nc2cccc(C)c2)cc1,3.67%
5,COc1ccc(OC)c(CNC(=O)CCNC(=O)Cn2ccc3ccccc3c2=O)c1,5.43%
6,O=C(CCC1CCCC1)NCCS(=O)(=O)N1CCN(c2ccccc2)CC1,7.89%
7,COCc1nnc(NC(=O)C2CC(=O)N(c3ccc(C)c(Cl)c3)C2)s1 (stereo not drawn),-0.0041%
8,CCC(C)NC(=S)N1CCN(C(c2ccccc2)c2ccccc2)CC1 (stereo not drawn),-8.79%
9,CCn1c(=NC(=O)CSC(C)=O)sc2cc(OC)ccc21,1.6%
10,CC(C)C(=O)NC(NC(=O)C(C)C)c1ccc([N+](=O)[O-])cc1,5.88%
11,O=C(CNC(=O)c1cccc(Br)c1)N/N=C/c1cccnc1,5.78%
12,O=C(COC(=O)c1cccc(NS(=O)(=O)/C=C/c2ccccc2)c1)Nc1ccccc1OC(F)F,8.11%
13,Cc1ccc(-n2c(SCC(=O)Nc3cc(C)on3)nc3ccccc3c2=O)cc1,7.51%
14,CCc1nnc(NC(=O)CSc2nnc(CNc3cccc(C)c3)n2-c2ccccc2)s1,3.8%
15,Cc1cc([N+](=O)[O-])ccc1NC(=O)c1sc2ncn(CC(=O)N3CCOCC3)c(=O)c2c1C,10.3%
16,COc1ccccc1OCCCn1c(=O)sc2ccccc21,6.23%
17,CN1CCN(S(=O)(=O)c2ccc(Br)c3nsnc23)CC1,10.5%
18,CCOC(=O)N1CCN(S(=O)(=O)c2ccc(C(=O)Nc3nnc(C4CC4)o3)cc2)CC1,-1.38%
19,O=c1cc(Cl)[nH]c(=O)n1CCNc1ncc(C(F)(F)F)cc1Cl,-3.66%
20,CN1CCc2c(sc3nc(NN)n(Cc4ccccc4)c(=O)c23)C1,10.8%
21,CCCCN(C)CC(O)Cn1cc(/C=C/C(=O)c2cccs2)c2ccccc21 (stereo not drawn),7.26%
22,CCc1ccc(NC(=O)COC(=O)C2(c3ccc(Cl)cc3)CCCC2)cc1,11%

row,Structure (SMILES),"hERG current change (%, negative = inhibition) at 1uM"
1,COc1cccc(OC)c1CNC(=O)CCSCc1ccccc1F,7.24%
2,Cc1ccc(-c2noc(CCC(=O)Nc3cc(C)ccn3)n2)cc1,9.61%
3,CC(C)Cn1c(/C=C/c2ccco2)nc2ccccc21,13.6%
4,O=S(=O)(Nc1cccc(-c2cn3c(n2)SCC3)c1)c1ccc(F)cc1F,6.34%
5,CCOC(=O)C(C)Sc1ncnc2nc[nH]c12 (stereo not drawn),2.28%
6,CSc1ncccc1C(=O)N1CCN(S(=O)(=O)c2ccccc2)CC1,20.3%
7,O=c1oc2cc(Oc3c([N+](=O)[O-])cc(C(F)(F)F)cc3[N+](=O)[O-])ccc2c2c1CCCC2,7.02%
8,O=C(Nc1ccc2c(c1)Cc1ccccc1-2)c1ccco1,4.54%
9,O=C1c2ccccc2C(=O)N1Cc1cc(-c2ccccc2)no1,11.6%
10,Cc1ccc(SCCCn2cnc3ccccc3c2=O)cc1,8.47%
11,Cl.OC(CNC1CCCC1)COc1ccc(-c2ccccc2)cc1 (stereo not drawn),9.19%
12,Cc1ccc2nc(C)cc(N/N=C/c3ccccc3O)c2c1,8.77%
13,Cc1ccc(OCCNC(=O)c2ccc(C)o2)cc1,8.42%
14,CCOC(=O)N1CCN(C(=O)c2cccc(N3C(=O)NC4CC3(C)Oc3ccccc34)c2)CC1 (stereo not drawn),13%
15,CC(=O)OCC[C@H](NS(=O)(=O)OCC(Cl)(Cl)Cl)c1ccccc1,11.9%
16,Cc1cc(C)cc(OCC(=O)OCC(=O)c2ccc3c(c2)NC(=O)CO3)c1,12.2%
17,COc1ccc(OCCNC(=O)c2cccc(Oc3ccc(C(F)(F)F)cc3[N+](=O)[O-])c2)cc1,3.75%
18,CCN1CCN(c2ccc(S(=O)(=O)N3CCCCC3)cc2NC(=O)c2ccccc2)CC1,-15.6%
19,CC1Cc2cc(/C=C3/SC(=S)NC3=O)ccc2O1 (stereo not drawn),9.84%
20,CCCN(CC(=O)Nc1ccccc1OC)C(=O)c1cc(-c2cccs2)nn1-c1ccccc1,0.953%
21,COc1ccc2c(c1)c(=O)oc1cc(OCC(=O)N3CCC(C)CC3)ccc12,8.26%
